For 56 variants, self-cleavage results are on record in the RNAGym collection of RNA variant scans (doi:10.7554/elife.90254).

Read counts are not given, so values of variants with three or more changes are uncertain.

B1: LINE1-mini (parent)
chain: GGCAGAGCUCAACACAGCGUGGCAAAGUGGCUGUGGCUAGACUGCC

The series covers variants of B1. Nature of the series: self-cleavage, relative activity (ratio to wild type); higher = more cleavage; in vitro, sequencing; the parent is a self-cleaving ribozyme.
Regarding GGCAGAGCUCAACACAGCGUGGCAAAGUGGAUGUGGCUAGCCAGCC [C31A A41C U43A], the self-cleavage came to 0.02.

With GGCAGAGCUCAACACAGCGUGGCAAAGUGGUUGUGGCUAACCUGUC [C31U G40A A41C C45U], the self-cleavage was determined as 0.01.

For the variant GGCAGAGCUCAACACAGCGUGGCAAAGUGUCUGUGUCUUGACUGCC [G30U G36U A39U], the self-cleavage amounted to 0.07.

On to GGCAGAGCUCAACACAGCGUGGCAAAGUGGUUGUGGCUAGUCUCCC [C31U A41U G44C], for which the self-cleavage came to 0.02.

Take GGCAGAGCUCAACACAGCGUGGCAAAGUGGGUUAGGCUAGACUGCC [C31G G33U U34A]: the self-cleavage amounted to 0.05.

Take GGCAGAGCUCAACACAGCGUGGCAAAGUGGAUGUGGUUAGAUUGCG [C31A C37U C42U C46G]: the self-cleavage was determined as 0.01.

As to GGCAGAGCUCAACACAGCGUGGCAAAGUGGGUGUGGAUAGACUGCG [C31G C37A C46G], the self-cleavage stood at 0.03.

Consider GGCAGAGCUCAACACAGCGUGGCAAAGUGGAUAUGGGUAGACUGCC [C31A G33A C37G], for which the self-cleavage was 0.02.

For the variant GGCAGAGCUCAACACAGCGUGGCAAAGUGGUUGUGGCUAAACUUCC [C31U G40A G44U], the self-cleavage came to 0.02.

Regarding GGCAGAGCUCAACACAGCGUGGCAAAGUGGAUAUGGCUAGACUACC [C31A G33A G44A], the self-cleavage came out at 0.07.

As to GGCAGAGCUCAACACAGCGUGGCAAAGUGGAUGUGACUAAACGGCC [C31A G36A G40A U43G], the self-cleavage came to 0.06.

With GGCAGAGCUCAACACAGCGUGGCAAAGUGGAUGUGGCUAGAAUGAC [C31A C42A C45A], the self-cleavage was 0.03.

Regarding GGCAGAGCUCAACACAGCGUGGCAAAGUGGAUCUCGCAAGACUGCC [C31A G33C G35C U38A], the self-cleavage is 0.05.

GGCAGAGCUCAACACAGCGUGGCAAAGUGGUUGGGGCUAGACUUCC [C31U U34G G44U]: the self-cleavage was 0.01.

As to GGCAGAGCUCAACACAGCGUGGCAAAGUGGUUGUUCCUAAACUGUC [C31U G35U G36C G40A C45U], the self-cleavage is 0.12.

GGCAGAGCUCAACACAGCGUGGCAAAGUGGGUGUGGCAAGAAUGCC [C31G U38A C42A]: the self-cleavage worked out at 0.01.

For GGCAGAGCUCAACACAGCGUGGCAAAGUGGUUGUUGCUAGACUCCC [C31U G35U G44C], the self-cleavage is 0.03.

Regarding GGCAGAGCUCAACACAGCGUGGCAAAGUGGAUGUGGCGGGACUGCC [C31A U38G A39G], the self-cleavage was 0.15.

Regarding GGCAGAGCUCAACACAGCGUGGCAAAGUGGUUUUGGAUAGACUGCC [C31U G33U C37A], the self-cleavage was 0.12.

With GGCAGAGCUCAACACAGCGUGGCAAAGUGGGUGUGGCUCUACUGCC [C31G A39C G40U], the self-cleavage came to 0.01.

For the variant GGCAGAGCUCAACACAGCGUGGCAAAGUGGUUGUGGCUGGACCGCC [C31U A39G U43C], the self-cleavage is 0.01.

As to GGCAGAGCUCAACACAGCGUGGCAAAGUGGAUGUGGCUAGACCUCC [C31A U43C G44U], the self-cleavage stood at 0.03.

Consider GGCAGAGCUCAACACAGCGUGGCAAAGUGUCUGUGGCAAGCGUGCC [G30U U38A A41C C42G], for which the self-cleavage is 0.01.

For the variant GGCAGAGCUCAACACAGCGUGGCAAAGUGGUUGUGGUUAGACUCCC [C31U C37U G44C], the self-cleavage came to 0.04.

In the case of GGCAGAGCUCAACACAGCGUGGCAAAGUGUCUGUAGCUAGACUGUC [G30U G35A C45U], the self-cleavage worked out at 0.

As for GGCAGAGCUCAACACAGCGUGGCAAAGUGGAUGUGGCUAGAGUUCC [C31A C42G G44U], the self-cleavage came out at 0.08.

On to GGCAGAGCUCAACACAGCGUGGCAAAGUGUCUGUGGCUAAACUGUU [G30U G40A C45U C46U], for which the self-cleavage came out at 0.05.

Regarding GGCAGAGCUCAACACAGCGUGGCAAAGUGGAUGUGGCUGGUCUGCC [C31A A39G A41U], the self-cleavage was 0.02.

Take GGCAGAGCUCAACACAGCGUGGCAAAGUGGGUGUGGCUAGACGGCG [C31G U43G C46G]: the self-cleavage came out at 0.03.

GGCAGAGCUCAACACAGCGUGGCAAAGUGGGAGUGACUAGACUGCC [C31G U32A G36A]: the self-cleavage amounted to 0.05.

In the case of GGCAGAGCUCAACACAGCGUGGCAAAGUGGUUGUUGCUAGGCUGCC [C31U G35U A41G], the self-cleavage is 0.03.

Consider GGCAGAGCUCAACACAGCGUGGCAAAGUGGAUUAGGCUAGACUGCC [C31A G33U U34A], for which the self-cleavage came out at 0.05.

With GGCAGAGCUCAACACAGCGUGGCAAAGUGGUUGUGUCGAGACUGCC [C31U G36U U38G], the self-cleavage came out at 0.02.

GGCAGAGCUCAACACAGCGUGGCAAAGUGGAUGUGGCUAGAGUGUC [C31A C42G C45U]: the self-cleavage stood at 0.01.

As for GGCAGAGCUCAACACAGCGUGGCAAAGUGGGUGUCGCAAGACUGCC [C31G G35C U38A], the self-cleavage was determined as 0.03.

GGCAGAGCUCAACACAGCGUGGCAAAGUGGGUGUGGCUUGACUGCA [C31G A39U C46A]: the self-cleavage came to 0.02.

On to GGCAGAGCUCAACACAGCGUGGCAAAGUGUCAAUGGCUAGACUGCA [G30U U32A G33A C46A], for which the self-cleavage amounted to 0.03.

Take GGCAGAGCUCAACACAGCGUGGCAAAGUGGUGGUGACUAGACUGCC [C31U U32G G36A]: the self-cleavage is 0.

On to GGCAGAGCUCAACACAGCGUGGCAAAGUGGUUGAGGCUAGACAGCC [C31U U34A U43A], for which the self-cleavage worked out at 0.01.

GGCAGAGCUCAACACAGCGUGGCAAAGUGGAUUCGGGUAGACUGCC [C31A G33U U34C C37G]: the self-cleavage was 0.02.

Take GGCAGAGCUCAACACAGCGUGGCAAAGUGGAUUUGGCGAGAGUGCC [C31A G33U U38G C42G]: the self-cleavage was found to be 0.08.

As for GGCAGAGCUCAACACAGCGUGGCAAAGUGGGGUUGGCUAGACCGCC [C31G U32G G33U U43C], the self-cleavage was 0.

Turning to GGCAGAGCUCAACACAGCGUGGCAAAGUGGCAGUGGAUUGACUGCC [U32A C37A A39U], the self-cleavage is 0.04.

GGCAGAGCUCAACACAGCGUGGCAAAGUGUCUGUGUCUAGACUUCC [G30U G36U G44U]: the self-cleavage turned out to be 0.3.

Regarding GGCAGAGCUCAACACAGCGUGGCAAAGUGUCUGUGGCUAUAGUGCC [G30U G40U C42G], the self-cleavage was found to be 0.02.

In the case of GGCAGAGCUCAACACAGCGUGGCAAAGUGGAUGUGGCUAAACAGCC [C31A G40A U43A], the self-cleavage turned out to be 0.03.

As for GGCAGAGCUCAACACAGCGUGGCAAAGUGUCUGUGGCGUGACUGCC [G30U U38G A39U], the self-cleavage was 0.06.

GGCAGAGCUCAACACAGCGUGGCAAAGUGGGUGCGGCUAGACUGAC [C31G U34C C45A]: the self-cleavage is 0.02.

With GGCAGAGCUCAACACAGCGUGGCAAAGUGGUUGUGACUAGAAUGCC [C31U G36A C42A], the self-cleavage is 0.12.

In the case of GGCAGAGCUCAACACAGCGUGGCAAAGUGGAUGUGGCUAGCGUGCC [C31A A41C C42G], the self-cleavage amounted to 0.04.

On to GGCAGAGCUCAACACAGCGUGGCAAAGUGUCUGUGGCUAUACUUCC [G30U G40U G44U], for which the self-cleavage is 0.03.

As for GGCAGAGCUCAACACAGCGUGGCAAAGUGGAUGUGGCUGGAAUGCC [C31A A39G C42A], the self-cleavage stood at 0.02.

Consider GGCAGAGCUCAACACAGCGUGGCAAAGUGGUUGUGGGAAGACUGCC [C31U C37G U38A], for which the self-cleavage was determined as 0.09.

For GGCAGAGCUCAACACAGCGUGGCAAAGUGGUUGUGGAGAGACUGCC [C31U C37A U38G], the self-cleavage was 0.02.

Take GGCAGAGCUCAACACAGCGUGGCAAAGUGGUUAUGCCUAGACUGCC [C31U G33A G36C]: the self-cleavage stood at 0.09.

For the variant GGCAGAGCUCAACACAGCGUGGCAAAGUGGUUUGGGCUAGACUGGC [C31U G33U U34G C45G], the self-cleavage is 0.03.
